The record followed here is PMC5507898.

Sequences of proteins named here, by UniProt entry; tags and fusion partners are left off. A change or cut given only in a name is not applied to a line headed by its entry.
UniProt P46527: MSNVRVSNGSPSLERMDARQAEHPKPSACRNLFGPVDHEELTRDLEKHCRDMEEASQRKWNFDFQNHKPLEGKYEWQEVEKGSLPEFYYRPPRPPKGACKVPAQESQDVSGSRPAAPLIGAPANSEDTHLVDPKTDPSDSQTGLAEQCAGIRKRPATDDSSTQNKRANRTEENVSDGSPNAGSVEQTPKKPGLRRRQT
UniProt Q8IXJ9: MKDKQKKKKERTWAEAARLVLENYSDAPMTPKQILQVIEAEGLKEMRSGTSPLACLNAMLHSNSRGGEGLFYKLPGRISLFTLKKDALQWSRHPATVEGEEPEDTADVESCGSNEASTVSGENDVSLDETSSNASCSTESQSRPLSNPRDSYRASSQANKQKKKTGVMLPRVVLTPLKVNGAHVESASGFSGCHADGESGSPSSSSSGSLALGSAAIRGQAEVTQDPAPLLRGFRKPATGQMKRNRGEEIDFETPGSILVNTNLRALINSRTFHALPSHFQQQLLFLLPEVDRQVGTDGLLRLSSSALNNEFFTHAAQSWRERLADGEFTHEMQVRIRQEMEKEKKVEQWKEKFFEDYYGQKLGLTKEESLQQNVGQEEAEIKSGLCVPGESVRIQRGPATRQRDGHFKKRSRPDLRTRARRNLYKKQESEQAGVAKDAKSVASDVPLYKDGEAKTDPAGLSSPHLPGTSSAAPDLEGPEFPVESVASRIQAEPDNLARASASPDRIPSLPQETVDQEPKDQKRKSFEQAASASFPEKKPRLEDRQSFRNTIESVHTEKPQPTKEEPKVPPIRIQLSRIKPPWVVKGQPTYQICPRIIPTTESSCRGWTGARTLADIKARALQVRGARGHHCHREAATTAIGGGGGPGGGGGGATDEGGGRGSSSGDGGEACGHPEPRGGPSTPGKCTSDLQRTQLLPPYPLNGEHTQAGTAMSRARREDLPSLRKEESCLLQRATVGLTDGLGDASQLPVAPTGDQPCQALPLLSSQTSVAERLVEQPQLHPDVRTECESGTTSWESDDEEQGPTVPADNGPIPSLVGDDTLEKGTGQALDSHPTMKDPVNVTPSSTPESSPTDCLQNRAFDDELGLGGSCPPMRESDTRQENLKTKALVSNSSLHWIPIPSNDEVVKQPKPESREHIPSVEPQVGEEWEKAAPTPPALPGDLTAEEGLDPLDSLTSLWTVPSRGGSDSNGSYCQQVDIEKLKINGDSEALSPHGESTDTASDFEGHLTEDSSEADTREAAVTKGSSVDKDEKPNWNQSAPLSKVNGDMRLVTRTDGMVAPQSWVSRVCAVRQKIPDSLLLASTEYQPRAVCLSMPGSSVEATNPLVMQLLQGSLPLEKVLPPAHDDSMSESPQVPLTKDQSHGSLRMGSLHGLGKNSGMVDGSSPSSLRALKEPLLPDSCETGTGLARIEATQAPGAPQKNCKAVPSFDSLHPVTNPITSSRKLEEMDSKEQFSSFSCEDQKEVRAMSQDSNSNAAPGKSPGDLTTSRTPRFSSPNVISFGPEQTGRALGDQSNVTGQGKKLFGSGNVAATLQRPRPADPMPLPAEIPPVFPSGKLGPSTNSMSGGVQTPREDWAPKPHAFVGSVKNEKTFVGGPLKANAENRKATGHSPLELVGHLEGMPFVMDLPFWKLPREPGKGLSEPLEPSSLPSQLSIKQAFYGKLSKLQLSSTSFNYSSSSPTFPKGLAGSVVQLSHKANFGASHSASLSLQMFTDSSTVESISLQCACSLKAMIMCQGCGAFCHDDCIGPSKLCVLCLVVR
UniProt P31749: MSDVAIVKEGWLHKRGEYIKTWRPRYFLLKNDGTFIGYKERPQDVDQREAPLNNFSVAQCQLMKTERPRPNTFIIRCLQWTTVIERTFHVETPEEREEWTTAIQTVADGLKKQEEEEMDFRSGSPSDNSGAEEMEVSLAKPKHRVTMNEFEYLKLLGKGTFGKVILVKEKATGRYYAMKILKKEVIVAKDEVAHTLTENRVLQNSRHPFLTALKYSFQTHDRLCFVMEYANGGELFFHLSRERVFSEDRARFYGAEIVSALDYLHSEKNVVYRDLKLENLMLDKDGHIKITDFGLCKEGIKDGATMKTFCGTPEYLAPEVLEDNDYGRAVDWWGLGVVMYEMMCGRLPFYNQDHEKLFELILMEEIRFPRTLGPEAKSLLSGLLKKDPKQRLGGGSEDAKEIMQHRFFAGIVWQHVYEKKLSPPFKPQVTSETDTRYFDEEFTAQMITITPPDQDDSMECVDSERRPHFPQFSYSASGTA

Results are given in words; binding and its absence hold for the method and conditions named. For part of these data: Binding seen in cells or lysates may run through a third protein. Some results given as binding are weak or reduced against the parent protein; the word gives no strength. For part of these data: Where a sequence is shown, tags or fusion partners need not be part of it.

The target in experiment [1] is p27Kip1 (HEK293 cells) (human (endogenous in HEK293)) (UniProt P46527). In words: co-IP; HEK293 lysates with or without IGF-1 treatment; IP with anti-p27 antibody, WB with anti-ASXL1 and anti-AKT antibody.
For experiment [2], the target named is ASXL1 (endogenous, H1299 cells) (human (endogenous in H1299)) (UniProt Q8IXJ9). In words: co-IP; H1299 cell lysates; IP with anti-AKT1 or anti-ASXL1 antibody, blot with the other; lysis in TEN-modified buffer (50 mM Tris-Cl pH 7.5, 150 mM NaCl, 0.1% NP-40, 5 mM EDTA), 4 °C overnight, washes with RIPA buffer; a further co-IP after IGF-1 or LY294002 (Supplementary Figure 2e, cells not stated).

The target in experiment [3] is AKT1 (endogenous, H1299 cells) (human (endogenous in H1299)) (UniProt P31749). Described as above.
Experiment [4] shares this target. In words: co-IP; IP from cytoplasmic and nuclear fractions of H1299 cells.
Experiment [5] addresses Flag-AKT1 kinase-deficient mutant (T308A/S473A) (human) (UniProt P31749). Put plainly: co-IP; H1299 cells transfected with Flag-AKT1, CA or KD mutant vectors; lysates for IP and WB.
Experiment [6] addresses Flag-AKT1 constitutive active mutant (T308D/S473D) (human) (UniProt P31749). The experiment is described as above.
In experiment [7] the target is Flag-AKT1 wild-type (human) (UniProt P31749). The experiment is described as above.
In experiment [8] the target is T1, GST-ASXL1 fragment (aa 371-655) (mouse) (UniProt P59598).
T1 sequence: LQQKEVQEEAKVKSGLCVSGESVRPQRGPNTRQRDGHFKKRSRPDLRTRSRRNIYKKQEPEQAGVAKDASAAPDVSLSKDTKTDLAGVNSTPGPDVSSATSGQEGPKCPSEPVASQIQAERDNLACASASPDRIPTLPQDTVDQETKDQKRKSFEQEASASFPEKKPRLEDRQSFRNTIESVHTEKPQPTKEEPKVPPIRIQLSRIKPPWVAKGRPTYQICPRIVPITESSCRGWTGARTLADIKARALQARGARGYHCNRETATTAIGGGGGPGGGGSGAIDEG
Put plainly: pull-down; GST or GST-ASXL1 fragment on glutathione-Sepharose mixed with His-tagged AKT1 (and fragments); bound protein detected by WB with anti-His antibody; both purified.

On to “AKT1 (HEK293 cells) (from UniProt P31749 1-480) (enzyme)”, for which, in experiment [1], the binding entry is listed as “binds”.

For the substance “AKT1 (endogenous, H1299 cells) (from UniProt P31749 1-480) (enzyme)”, the binding entry in experiment [2] is “binds”. For the substance “ASXL1 (endogenous, H1299 cells) (from UniProt Q8IXJ9 1-1541)”, the binding entry in experiment [3] is recorded as “binds”; in experiment [4] it was “binds”; in experiment [5] it was “no binding”; in experiment [6], “binds”; in experiment [7], “binds”. “ASXL1 (endogenous, HEK293 cells) (from UniProt Q8IXJ9 1-1541)”: in experiment [1], the binding entry is listed as “binds”. For the substance “His-AKT1 (from UniProt P31749 1-480) (enzyme)”, the binding entry in experiment [8] is on record as “binds”.
